Reference: PubChem BioAssay AID686978 (National Center for Advancing Translational Sciences (NCATS), 2013)
Hit rate of the full screen: of about 420,000 compounds, about 64,000 (15%) were called active. Inconclusive means that the source gave no clear call. Such entries were picked first, then a sample of the others. Calls come from the whole dose curve; as a rule, active = well fitted inhibition curve with a large enough effect; inconclusive = small, poorly fitted or top-dose-only effect; inactive = flat fitted curve, though single readings scatter. Potencies of inconclusive entries are left out as doubtful fits.

Test: qHTS for Inhibitors of human tyrosyl-DNA phosphodiesterase 1 (TDP1): qHTS in cells in absence of CPT; note: nearly all actives have a fitted effect of over 55% in size
Settings: DT40 Tdp1-/- hTDP1 cells, no CPT, ATP luminescence, 48 h; activity change, negative = growth inhibition: at 46.2 µM (top of the series) unless noted
Procedure, shortened: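 Seeded 400 DT40-hTDP1 cells/well (vehicle DMSO, no 20 nM CPT); pinned compounds; ≥48 hr at 37 °C; CellTiter-Glo luminescence as viability measure.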
% is set by controls: 0 for no effect and ±100 for the full control effect; potency is the fitted concentration of half-maximal effect; tags give direction and shape of the fitted curve.

Structure (SMILES)	Potency	activity change, negative = growth inhibition
COc1ccc2c(c1)CC/C(=C\c1ccc(OC)c(Cn3nc(C)cc3C)c1)C2=O	active: 18.4 µM	–
CCN(CC)c1ccc(/C=N/NC(=O)c2ccco2)c(O)c1	active: 2.59 µM	–
CC1Cc2ccccc2N1S(=O)(=O)c1cccc(C(=O)NCCCn2ccnc2)c1 (configuration not stated)	inconclusive [inhibitor, single point]	–
CCOc1ccc(CCNC(=O)CCC(=O)N2CCOc3ccccc32)cc1OCC	inconclusive [inhibitor, single point]	–
COc1ccccc1NC(=O)CCNC(=O)c1ccc(C)cc1	inactive	–
COC(=O)C=C1CCC2C3CC(F)C4(O)CC(=O)CCC4(C)C3C(=O)CC12C (configuration not stated)	–	inconclusive: -32.4% [inhibitor]
Cc1ccc(C)c(NC(=O)CCCN2C(=O)C(c3ccccc3)Oc3cccnc32)c1 (configuration not stated)	active: 23.1 µM	–
CC(C)(CN1CCc2ccccc2C1)NS(=O)(=O)c1ccc(Cl)cc1	inconclusive [inhibitor, single point]	–
COC(=O)CSc1ccc2nnc(-c3ccc(F)cc3)n2n1	inconclusive [inhibitor, single point]	–
Nc1c(C(=O)Nc2ccc(Br)cc2)sc2nc(-c3ccncc3)ccc12	inconclusive [inhibitor, partial curve]	–
CC(=O)Nc1ccc(S(=O)(=O)N(CC(=O)Nc2cc(C)on2)Cc2ccc(F)cc2)cc1	inconclusive [inhibitor, single point]	–
CC(C)(C)c1ccc(C(=O)NCCn2c(N)c(C#N)c3nc4ccccc4nc32)cc1	active: 29.1 µM	–
O=C(CNC(=O)c1ccc(Cl)cc1)OCc1cc(=O)n2nc(C3CCCCC3)sc2n1	inactive	–
Cc1ccc(Nc2nnc(SCC(=O)Nc3cccc(S(=O)(=O)NC4=NCCCCC4)c3)s2)c(C)c1	active: 25.9 µM	–
CC[C@]1(C(=O)OC)[C@H]2C(=O)N(C)C(=O)[C@H]2[C@H]2CN=C(SC)N21	inactive	–
COc1ccc(CNC(=S)N/N=C(/C)c2ccccc2)cc1	inconclusive [inhibitor, single point]	–
O=C(NNc1nc2cc3c(cc2s1)OCO3)c1ccccc1	inconclusive [inhibitor, single point]	–
COc1ccc(Nc2nc(N)nc(CSC(=S)N3CCN(c4ccccc4)CC3)n2)cc1	active: 18.4 µM	–
CCCCCCN1C[C@@H](n2cc(COC(=O)c3ccccc3)nn2)[C@H](O)C[C@@H]1c1ccc(OC)cc1	inconclusive [inhibitor, single point]	–
Cc1ccc(OCC(=O)NNC(=O)c2ccc(-n3cncn3)c([N+](=O)[O-])c2)cc1	inconclusive [inhibitor, single point]	–
O=C(/C=C/c1ccc(Cl)c([N+](=O)[O-])c1)NCc1cccnc1	inconclusive [inhibitor, single point]	–
CCCCN(CC)C(=O)Cc1ccccc1OC	inconclusive [inhibitor, single point]	–
COc1ccc(OC)c(S(=O)(=O)N2CCN(c3c(C)cccc3C)CC2)c1	inactive	–
COc1cc(NC(=O)C(C)C)ccc1NC(=O)c1cc2ccccc2o1	inconclusive [inhibitor, single point]	–

Structure (SMILES)	Potency	activity change, negative = growth inhibition
CCCCCCCCCCCC(=O)[O][Sn]([CH2]CCC)([CH2]CCC)[O]C(=O)CCCCCCCCCCC	inactive	–
O=c1c2c([nH]c3ccccc13)CCCCC2	inconclusive [inhibitor, partial curve]	–
CCOc1cc(C)c(Cl)cc1S(=O)(=O)N(C)C	inconclusive [inhibitor, single point]	–
Cc1cc(C)c(NC(=O)CSc2nc(-c3ccc(F)cc3)nc3c2Cc2c(CO)cnc(C)c2O3)c(C)c1	inactive	–
Cc1ccc(-n2nc3c(=O)n(CCCC(=O)NCCN4CCN(C)CC4)nc(C)c3c2C)cc1	inactive	–
O=S1(=O)NC(=NCCOCCO)c2ccccc21	inactive	–
CN(C)c1ccc(C(=O)NC2CCCc3ccccc32)cc1 (configuration not stated)	inconclusive [inhibitor, partial curve]	–
CCC(C)[C@H]1CN=C(N)N1CCCc1cc(OC)c(OC)c(OC)c1 (some centres not stated)	inactive	–
Oc1ccc(C(=S)N2CCN(c3cccc(Cl)c3)CC2)cc1	inconclusive [inhibitor, single point]	–
O=C(c1cccnc1)N1CCN(c2ccc(Cl)cc2)CC1	inconclusive [inhibitor, partial curve]	–
COc1ccc(CNC(=O)c2ccc(CS(=O)(=O)Cc3ccccc3F)o2)cc1	active: 16.4 µM	–
COCCn1c(=O)c(CCc2ccccc2)nc2cnc(N3CCNCC3)nc21	inconclusive [inhibitor, single point]	–
CCOCCCn1c(SCc2ccccc2)nnc1-c1ccncc1	inactive	–
O=C(NC1=C(Nc2ccc(F)cc2)C(=O)c2ccccc2C1=O)c1ccc(Cl)cc1	inconclusive [inhibitor, single point]	–
Cc1ccc(C)c(NC(=O)CN(C)C(=O)c2cc3c(s2)CCCCC3)c1	inconclusive [inhibitor, single point]	–
CCCC(O)(CCN1CCCCC1)c1ccc(OCC)cc1 (configuration not stated)	inconclusive [inhibitor, single point]	–
CCOC(=O)C[C@H]1c2ccccc2S(=O)(=O)N1Cc1ccc(Cl)cc1	active: 17.8 µM	–
CN(CC(=O)Nc1ccc(F)c(F)c1F)C(=O)C1CSC2(C)CCC(=O)N12 (configuration not stated)	inactive	–
Cc1cn(CC(=O)NCC(c2ccccc2)c2ccccc2)c(=O)[nH]c1=O	inactive	–
COc1ccc(/C=C/c2nc3cc(-c4ccccc4)ccc3o2)cc1O	active: 9.2 µM	–
CC(C)c1ccc(C=NNc2ccc([N+](=O)[O-])cn2)cc1	inconclusive [inhibitor, single point]	–
Cc1ccc(OCCOc2ccc(Br)cc2/C=N\NC(N)=O)cc1	inconclusive [inhibitor, partial curve]	–
COC(=O)CNC(=O)C1Nc2ccccc2C2C=CCC12 (configuration not stated)	inconclusive [inhibitor, single point]	–
CCCCN(CC)Cc1ccc(CNC(=S)Nc2cccc(F)c2)o1	active: 23.1 µM	–

Structure (SMILES)	Potency	activity change, negative = growth inhibition
Cc1csc(N(C(=O)Cc2ccccc2F)c2ccccc2)n1	active: 23.1 µM	–
CCOc1ccc2nc3sc(C(=O)N4CCN(C)CC4)c(N)c3cc2c1	inconclusive [inhibitor, partial curve, poor fit]	–
Cc1c(NC(=O)CN2CCN(c3cccc(Cl)c3)CC2)c(=O)n(-c2ccccc2)n1C	inconclusive [inhibitor, partial curve, poor fit]	–
CSc1ccc(S(=O)(=O)Nc2ccc3c4c(cccc24)CC3)cc1	inconclusive [inhibitor, partial curve]	–
CCCCSCCCNC(=O)C1CCN(Cc2nc(-c3cccc(Br)c3)oc2C)CC1	inconclusive [inhibitor, partial curve]	–
CCN(CC)S(=O)(=O)c1ccc(N2CCOCC2)c(NC(=O)Cc2ccccc2)c1	inactive	–
COc1ccc(N2CC(C(=O)NCCc3c[nH]c4ccccc34)CC2=O)cc1 (configuration not stated)	inconclusive [inhibitor, full curve]	–
COc1ccc(NC(=O)c2cccc(OC(=S)N3CCOCC3)c2)cc1	inconclusive [inhibitor, single point]	–
O=C1C(Nc2ccccc2)=CC(=O)c2ncccc21	active: 1.12 µM	–
O=C(NCCC1=CCCCC1)c1ccc2c(c1)N(Cc1cccc(Cl)c1)C(=O)c1ccccc1S2(=O)=O	–	inconclusive: -34% [inhibitor]
COc1cccc(OC)c1OCCN(C)C	inactive	–
N#C/C(=C(/O)COC(=O)c1cccnc1Cl)c1nc2ccccc2[nH]1	active: 23.1 µM	–
CC1CC2(CC(CN(C3CCCCC3)C3CCCCC3)OC2=O)C(=O)O1 (configuration not stated)	inactive	–
Cc1nn(-c2ccc(N3CCCC3)nn2)c(C)c1CCC(=O)NCc1ccc(OC(C)C)cc1	inconclusive [inhibitor, single point]	–
COCC(C)NC(=O)c1cc(S(=O)(=O)N2CCCCC2)ccc1N1CCOCC1 (configuration not stated)	inactive	–
Cc1cc(N2CCN(S(=O)(=O)c3ccc4c(c3)OCCO4)CC2)n2ncnc2n1	inconclusive [inhibitor, single point]	–
CCc1nc2ccc(C(=O)Nc3ccc4c(c3)OCC(=O)N4)cn2c1N(CC)Cc1cccc(Br)c1	inactive	–
COC(=O)c1cccc(Oc2nc3c(c(=O)n(C)c(=O)n3C)n2Cc2ccc(C)cc2)c1	inconclusive [inhibitor, single point]	–
CCCCCn1c(N2CCN(Cc3ccccc3)CC2)nc2c1c(=O)[nH]c(=O)n2C	–	inconclusive: -31.2% [inhibitor]
CCOc1ccc(S(=O)(=O)c2cn(Cc3ccc(OC)cc3)c3ccc(F)cc3c2=O)cc1	inconclusive [inhibitor, single point]	–
O=C(CCCCn1c(=S)[nH]c2ccsc2c1=O)NCc1ccc2c(c1)OCO2	active: 18.4 µM	–
COC(=O)c1cc2ccsc2n1Cc1nc(-c2ccc(Cl)cc2)oc1C	inconclusive [inhibitor, single point]	–
O=c1cc(-c2ccc(O)c(O)c2)oc2c(C3O[C@H](CO)[C@@H](O)[C@H](O)[C@H]3O)c(O)cc(O)c12 (some centres not stated)	inactive	–
Cc1[nH]c2ccc(C(=O)OCC(=O)Nc3cccc(S(N)(=O)=O)c3)cc2c1C	inconclusive [inhibitor, single point]	–
